Screen size: about 310,000 compounds; about 2,200 (0.71%) showed an effect of 50% or more. The effect is printed as a negative number. The list shows a part of the results.
Each compound was assayed against human ether-à-go-go-related gene (hERG) potassium channel (human, UniProt Q12809) (assay: primary screen, population patch clamp on CHO cells stably expressing hERG).
Chain of human ether-à-go-go-related gene (hERG) potassium channel (Q12809 whole entry, looked up): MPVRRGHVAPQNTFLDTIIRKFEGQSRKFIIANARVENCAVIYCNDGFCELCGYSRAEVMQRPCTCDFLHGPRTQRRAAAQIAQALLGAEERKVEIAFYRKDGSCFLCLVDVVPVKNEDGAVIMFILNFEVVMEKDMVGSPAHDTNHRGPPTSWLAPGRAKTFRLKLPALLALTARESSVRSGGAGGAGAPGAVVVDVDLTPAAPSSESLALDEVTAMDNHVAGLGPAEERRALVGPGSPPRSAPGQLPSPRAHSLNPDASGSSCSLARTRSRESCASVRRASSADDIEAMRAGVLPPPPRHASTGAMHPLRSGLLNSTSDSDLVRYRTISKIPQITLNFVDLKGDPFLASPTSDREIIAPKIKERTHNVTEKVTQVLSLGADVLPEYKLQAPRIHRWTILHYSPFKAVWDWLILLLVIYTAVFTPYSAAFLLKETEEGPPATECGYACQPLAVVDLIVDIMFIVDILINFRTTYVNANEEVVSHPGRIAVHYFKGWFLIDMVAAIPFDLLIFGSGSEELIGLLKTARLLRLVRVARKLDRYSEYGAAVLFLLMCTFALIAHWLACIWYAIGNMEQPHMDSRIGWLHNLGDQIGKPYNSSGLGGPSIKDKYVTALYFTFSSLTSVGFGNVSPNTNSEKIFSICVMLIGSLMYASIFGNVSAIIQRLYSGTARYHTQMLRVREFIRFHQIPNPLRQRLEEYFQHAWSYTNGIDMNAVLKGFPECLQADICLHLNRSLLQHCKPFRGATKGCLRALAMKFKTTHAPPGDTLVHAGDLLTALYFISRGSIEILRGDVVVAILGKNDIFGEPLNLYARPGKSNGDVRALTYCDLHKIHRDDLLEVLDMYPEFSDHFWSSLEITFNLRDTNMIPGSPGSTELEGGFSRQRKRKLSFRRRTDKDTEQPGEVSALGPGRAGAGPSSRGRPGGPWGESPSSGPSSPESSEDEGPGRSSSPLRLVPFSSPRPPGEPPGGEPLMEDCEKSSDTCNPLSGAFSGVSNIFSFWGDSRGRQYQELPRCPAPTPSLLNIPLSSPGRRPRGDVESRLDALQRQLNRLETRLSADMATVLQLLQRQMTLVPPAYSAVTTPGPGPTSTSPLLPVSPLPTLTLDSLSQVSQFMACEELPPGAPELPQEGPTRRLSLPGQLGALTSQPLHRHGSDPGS

SMILES | hERG current change (%, negative = inhibition) at 1uM [%]
O=C(c1ccc(N2C(=O)c3ccccc3C2=O)cc1)N1CCCCC1 | 8.83
CC(C(=O)NCC1CCCCC1)N(C)Cc1ccc(Cl)cc1 (stereo not drawn) | 5.42
CCc1c(C)nc2cc(-c3cc(OC)cc(OC)c3)nn2c1N1CCN(CCN2CCOCC2)CC1 | -0.755
Cc1cc(NS(=O)(=O)c2ccc(NC(=S)NC(=O)/C=C/c3ccccc3)cc2)no1 | 4.78
CCCN(CCC)c1nc(N)c(C#N)c(CC#N)c1C#N | -0.637
Cc1ccc(S(=O)(=O)N(C)C)cc1NC(=O)CCNC(=O)c1ccco1 | 14.2
COc1ccc(NC(=O)Cc2ccc(Cl)c(Cl)c2)cn1 | 18.9
Cc1cccc(CS(=O)(=O)Cc2ccc(C(=O)NCC3CCCO3)o2)c1 (stereo not drawn) | -3
CCOC(=O)C(=O)Nc1cc(C(=O)OC)cc(C(=O)OC)c1 | 8.83
C/C(NCc1cccnc1)=C(\C#N)C(=O)NCc1ccccc1 | -2.85
Cc1cc(=O)n(C)c(=O)n1CCCCCN1CCCC1.O=C(O)C(=O)O | 6.69
Nc1ccccc1Nc1cccc(C(F)(F)F)c1 | 14.1
NC(=O)C1CCN(C(=O)Nc2csc3ccccc23)CC1 | 8.81
O=C(O)c1ccc(S(=O)(=O)Nc2cccc(CP(=O)(c3ccccc3)c3ccccc3)c2)cc1 | 16
O=C(COC(=O)c1ccc([N+](=O)[O-])cc1)Nc1cccnc1Cl | 4.99
Cn1ccsc1=NC(=O)c1cc(S(=O)(=O)N2CCOCC2)ccc1Cl | 11
CC(=O)Nc1sc2c(c1C(c1cccc(F)c1)N1CCN(CCO)CC1)CCCC2 (stereo not drawn) | -6.15
CSc1nc(N)nc(SCC(=O)c2ccc(C)cc2)c1C#N | 2.48
CN1CCN(C(=O)c2ccc(F)c(F)c2)CC1 | 7.94
CN(CCN(C)C(C)(C)C)C(=O)C(c1ccccc1)c1ccccc1 | 15.4
COc1ccc(OC)c(C(=O)COC(=O)c2cc(C)oc2C)c1 | 15.4
CC1CCN(c2ccccc2NC(=S)NC(=O)c2cccs2)CC1 | -3.67
CC(CCN1CCOCC1)c1ccccc1 (stereo not drawn) | 14.7

SMILES | hERG current change (%, negative = inhibition) at 1uM [%]
Cc1cc(NC(=O)c2ccccc2Cl)n(C(C)(C)C)n1 | 18.4
CC(C)(C)c1ccc(OCc2cnc(Cl)s2)cc1 | 21.2
CC(C)c1ccccc1NC1=NCCCS1 | 9.8
Oc1cccc(/C=N/N2CCN(c3ccccn3)CC2)c1 | 8.81
Cn1c(=O)c2c(nc(Br)n2CCc2ccccc2)n(C)c1=O | 10.8
CCOC(=O)COc1cccc(C2NC(=O)c3ccccc3O2)c1 (stereo not drawn) | 8.13
N#C/C(=C\c1ccccc1Br)C(=O)NC1CC1 | -1.11
COc1ccc(C(=O)N2CCN=C2SC)cc1OC | 1.76
Cc1cc(=O)[nH]c2c(C)cc(S(=O)(=O)NCc3ccccc3)cc12 | 14.8
COc1cccc(CN2CCNC(=O)C2CC(=O)NCCN2CCCCC2=O)c1 (stereo not drawn) | 11.5
CN(C)C=O.Cc1cc(C)n2nc(C(=O)OCC(=O)c3c[nH]c4ccccc34)nc2n1 | 5.74
CC(C)(C)n1nnnc1C(c1ccc(F)cc1)N1CCN(Cc2ccc3c(c2)OCO3)CC1 (stereo not drawn) | 3.33
C/C(=N\NC(=O)C1CC1)c1cccs1 | 11
N#C/C(=C\c1cn[nH]c1-c1ccc(Cl)cc1)C(=O)NCc1ccccc1 | 6.78
CC(C)(C)c1nn(-c2ccccc2)c2[nH]c(=O)c(CNCc3ccc4c(c3)OCO4)cc12 | 18.4
Cc1ccc(C(=O)Nc2nc(-c3cc(Cl)sc3Cl)cs2)cc1 | 0.62
CCC1CN(C(=O)N2CCC(C(=O)NCc3ccco3)CC2)c2ccccc2O1 (stereo not drawn) | 8.76
CCCN(CCC)C(=O)CSc1nc2ccccc2c(=O)n1C1CCCC1 | 4.8
Cc1c(CC(=O)N2C[C@H]3C[C@@H](C2)c2cccc(=O)n2C3)c(=O)oc2cc(O)c(Cl)cc12 | 7.7
COc1cc(C)ccc1OCCCCN1CC(C)OC(C)C1.O=C(O)C(=O)O (stereo not drawn) | -2.74
C[N+]1(CC2COC3(CCCCC3)O2)CCCCC1.[I-] (stereo not drawn) | 12.3
COc1ccc(N(C)C(=O)CN(C)S(=O)(=O)c2ccc3c(c2)c(=O)n(C)c(=O)n3C)c(OC)c1 | 5.95

— PMC4336329 (PLoS ONE, 2015)
